Among all 360,000 compounds or so, about 16,000 (4.4%) were called active. This list was built around the results that the source calls inconclusive (neither active nor inactive); the mix of calls is not that of the screen. Calls follow the shape of the dose curve; as a rule, active = well fitted inhibition curve with a large enough effect; inconclusive = small, poorly fitted or top-dose-only effect; inactive = no such curve, though single readings can be large or run the other way. Potencies of inconclusive entries are doubtful fits and often do not repeat.
Each compound was assayed against Bromodomain adjacent to zinc finger domain protein 2B (Homo sapiens) (UniProt Q9UIF8) (assay: qHTS Assay for Inhibitors of BAZ2B). Settings: AlphaScreen BAZ2B-H3K14Ac peptide displacement; series mostly up to 114 µM.
Chain of UniProt Q9UIF8 (Q9UIF8 whole entry, looked up, the tested form may be a part): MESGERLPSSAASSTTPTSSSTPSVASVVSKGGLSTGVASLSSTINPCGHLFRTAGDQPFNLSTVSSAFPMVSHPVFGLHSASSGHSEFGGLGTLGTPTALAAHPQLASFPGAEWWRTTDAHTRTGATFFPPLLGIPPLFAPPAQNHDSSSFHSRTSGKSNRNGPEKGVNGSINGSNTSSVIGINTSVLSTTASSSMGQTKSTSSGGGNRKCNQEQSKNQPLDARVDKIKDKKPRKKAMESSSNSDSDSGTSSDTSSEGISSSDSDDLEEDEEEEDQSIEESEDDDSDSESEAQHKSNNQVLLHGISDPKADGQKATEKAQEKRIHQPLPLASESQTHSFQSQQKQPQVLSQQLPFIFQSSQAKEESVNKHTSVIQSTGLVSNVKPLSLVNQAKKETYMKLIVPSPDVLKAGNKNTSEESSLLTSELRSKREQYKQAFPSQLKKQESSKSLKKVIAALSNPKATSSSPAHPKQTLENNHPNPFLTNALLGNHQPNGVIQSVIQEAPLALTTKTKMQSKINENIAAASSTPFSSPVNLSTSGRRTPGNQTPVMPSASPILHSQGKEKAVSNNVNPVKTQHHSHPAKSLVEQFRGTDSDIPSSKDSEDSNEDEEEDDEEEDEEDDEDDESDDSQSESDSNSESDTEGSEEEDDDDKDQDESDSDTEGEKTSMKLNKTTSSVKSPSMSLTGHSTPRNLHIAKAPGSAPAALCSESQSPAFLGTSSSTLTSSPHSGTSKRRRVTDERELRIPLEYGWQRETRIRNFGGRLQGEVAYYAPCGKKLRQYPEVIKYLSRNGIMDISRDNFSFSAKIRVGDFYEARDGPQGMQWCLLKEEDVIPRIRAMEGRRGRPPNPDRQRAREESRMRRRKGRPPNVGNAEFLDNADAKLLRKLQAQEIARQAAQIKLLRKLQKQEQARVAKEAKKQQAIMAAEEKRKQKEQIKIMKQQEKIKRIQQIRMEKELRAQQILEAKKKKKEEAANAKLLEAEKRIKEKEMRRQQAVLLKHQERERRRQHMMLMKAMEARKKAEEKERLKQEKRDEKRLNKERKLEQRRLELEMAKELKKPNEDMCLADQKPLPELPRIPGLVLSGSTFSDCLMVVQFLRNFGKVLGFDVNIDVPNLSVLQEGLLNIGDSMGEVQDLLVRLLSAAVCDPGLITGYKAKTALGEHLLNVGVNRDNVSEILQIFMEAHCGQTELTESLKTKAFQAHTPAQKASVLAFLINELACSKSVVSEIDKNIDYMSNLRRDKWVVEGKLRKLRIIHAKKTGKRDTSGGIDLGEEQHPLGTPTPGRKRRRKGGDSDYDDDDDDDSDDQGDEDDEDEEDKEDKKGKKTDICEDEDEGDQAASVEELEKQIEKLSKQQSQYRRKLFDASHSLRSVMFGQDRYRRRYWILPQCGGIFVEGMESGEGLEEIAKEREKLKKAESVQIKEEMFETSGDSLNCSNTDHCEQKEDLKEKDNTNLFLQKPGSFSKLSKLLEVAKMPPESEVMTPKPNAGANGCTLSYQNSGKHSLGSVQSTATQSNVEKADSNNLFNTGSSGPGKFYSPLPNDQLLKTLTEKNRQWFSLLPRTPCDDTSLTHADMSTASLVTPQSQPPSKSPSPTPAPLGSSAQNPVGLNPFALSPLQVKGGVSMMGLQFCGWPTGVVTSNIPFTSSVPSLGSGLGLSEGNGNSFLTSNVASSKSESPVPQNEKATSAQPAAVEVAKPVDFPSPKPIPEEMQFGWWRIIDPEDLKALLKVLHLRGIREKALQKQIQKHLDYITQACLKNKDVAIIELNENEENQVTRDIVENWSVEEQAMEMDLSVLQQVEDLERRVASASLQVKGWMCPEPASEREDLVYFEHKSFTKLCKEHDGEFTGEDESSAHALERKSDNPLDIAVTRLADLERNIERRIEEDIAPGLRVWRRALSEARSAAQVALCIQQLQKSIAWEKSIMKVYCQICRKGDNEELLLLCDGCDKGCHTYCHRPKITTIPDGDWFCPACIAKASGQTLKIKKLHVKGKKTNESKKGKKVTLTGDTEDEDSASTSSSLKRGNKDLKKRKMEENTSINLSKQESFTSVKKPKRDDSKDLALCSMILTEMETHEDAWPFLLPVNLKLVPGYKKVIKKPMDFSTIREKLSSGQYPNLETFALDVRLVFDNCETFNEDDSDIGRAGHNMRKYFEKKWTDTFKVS
Method in brief: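 In this displacement format the biotinylated H3(5-23) peptide acetylated at Lys14 serves as ligand at 50 nM, with BAZ2B at 50 nM in PBS pH 7.4 containing 0.01% Tween-20. Donor and acceptor beads are 10 ug/mL final.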
In the case of `COc1cccc(/C=C/c2nc(C#N)c(N3CCCCC3)o2)c1`, the Potency is reported as inconclusive: 12.6 µM [inhibitor, partial curve].
For `O=C(c1cnc2cc(-c3ccccc3)nn2c1)c1cc([N+](=O)[O-])ccc1O`, the Potency was inconclusive: 79.4 µM [inhibitor, partial curve].
In the case of `NC(=O)C1(N2CCCCC2)CCN(C(=S)NCCc2ccccc2)CC1`, the Potency is reported as “inactive”.
`Cc1ccc(S(=O)(=O)N(C)C)cc1NC(=O)C(C)N(C)Cc1sccc1C` (centres undefined) was tested, and the Potency was inconclusive: 12.6 µM [inhibitor, partial curve].
`CCOc1ccccc1CNc1ncnc2c1nc1n2CCCC1` was tested, and the Potency was “inactive”.
In the case of `COc1ccc(NC(=O)c2sc3nc(N4CCCC4)c4c(c3c2N)CC(C)(C)OC4)c(OC)c1`, the Potency is reported as “inactive”.
`COc1ccccc1N1CCN(C(c2ccc(C)cc2)c2nnnn2C(C)C)CC1` (centres undefined) was tested, and the Potency was “inactive”.
In the case of `COc1cc2c(cc1OC)C(COc1ccccc1OC)N(C(=O)c1ccco1)CC2` (centres undefined), the Potency is reported as inconclusive: 79.4 µM [inhibitor, partial curve].
With `O=C(CSc1nnc(-c2ccccc2)o1)NC1CC1` the Potency was “inactive”.
`Cc1cc(C)c(CN2CCC(n3nccc3NC(=O)CCOc3ccccc3)CC2)cc1C` was tested, and the Potency was “inactive”.
With `Cc1ccc(N2C(=O)[C@@H]3C(c4cccnc4)=NO[C@@H]3C2=O)c(C)c1` the Potency was “inactive”.
`O=C(/C=C/c1ccco1)Nc1cccc(C(=O)Nc2ccccc2C(=O)O)c1` was tested, and the Potency was inconclusive: 56.2 µM [inhibitor, partial curve].
For `COc1ccc(NC(=S)NCCCN2CCCC2)cc1Cl`, the Potency was inconclusive: 89.1 µM [inhibitor, single point].
In the case of `COc1ccc2cc(C3(C)NC(=O)N(CC(=O)Nc4c(C)n(C)n(-c5ccccc5)c4=O)C3=O)ccc2c1` (centres undefined), the Potency is reported as “inactive”.
For `COc1ccc(NC(=O)C2CCCN2S(=O)(=O)c2cccc3cccnc23)cc1OC` (centres undefined), the Potency was “inactive”.
`COc1ccc2nc(NC(=O)c3ccccc3O)sc2c1` was tested, and the Potency was inconclusive: 89.1 µM [inhibitor, single point].
`COc1ccccc1NC(=O)C(=O)NNC(=O)c1ccco1` was tested, and the Potency was inconclusive: 89.1 µM [inhibitor, single point].
For `CC1(N(O)/C=C2\C=CC=CC2=O)CCCCC1=O` (centres undefined), the Potency was “inactive”.
For `O=[N+]([O-])c1cccc2ccc(/C=C/c3ccc(F)cc3)nc12`, the Potency was inconclusive: 12.6 µM [inhibitor, full curve, poor fit].
With `O=c1[nH]c2c(s1)C(c1ccco1)C1C3CCC(C3)C1S2` (centres undefined) the Potency was active: 50.1 µM.
For `COc1ccc(-c2csc(NC(=O)/C(N=Nc3ccccc3)=C(\C)O)n2)cc1`, the Potency was “inactive”.
In the case of `CCSCc1nnc(SCC(=O)Nc2cccc(C(C)=O)c2)n1C`, the Potency is reported as inconclusive: 89.1 µM [inhibitor, single point].
`CCOC(=O)c1c(S(=O)(=O)NCC(=O)Nc2ccc(C)c(Cl)c2)c(C)n(C)c1C` was tested, and the Potency was inconclusive: 70.8 µM [inhibitor, single point].
For `NCC(c1ccccc1Cl)c1c[nH]c2ccccc12` (centres undefined), the Potency was inconclusive: 89.1 µM [inhibitor, single point].
`Cc1ccc(S(=O)(=O)CCc2nnc(NC(=O)c3ccccn3)s2)cc1` was tested, and the Potency was active: 3.16 µM.
For `Nc1ccc(S(N)(=O)=O)cc1N`, the Potency was inconclusive: 50.1 µM [inhibitor, partial curve, poor fit].
`Cc1[nH]c2c(C)cccc2c1CCNS(=O)(=O)c1cccc([N+](=O)[O-])c1` was tested, and the Potency was active: 50.1 µM.
For `O=C(NCCc1ccccc1Cl)c1ccc2nc3ccccc3c(=O)n2c1`, the Potency was “inactive”.
For `CCC(C(=O)NCc1ccccc1OC)n1nc(C)n2c(cc3sccc32)c1=O` (centres undefined), the Potency was “inactive”.
In the case of `Cc1cc(NC(=O)C2CCCCC2)ncc1NC(=O)c1ccccn1`, the Potency is reported as inconclusive: 79.4 µM [inhibitor, single point].
For `CC[C@H](C)/C=C(C)/C=C/C(=O)Cc1cc(O)c(C)c(O)c1C=O`, the Potency was inconclusive: 79.4 µM [inhibitor, single point].
In the case of `Cc1cc[n+](-c2[nH]c(=O)sc2/C=N/NC([S-])=Nc2ccccc2)cc1`, the Potency is reported as inconclusive: 50.1 µM [inhibitor, partial curve].
For `O=C(O)CCC(=O)Nc1ccc(NC(=O)c2ccc(Cl)cc2Cl)c(Cl)c1`, the Potency was “inactive”.
In the case of `CC1Nc2ncnc(N3CCN(c4ccccc4)CC3)c2N(Cc2ccc(Cl)cc2)C1=O` (centres undefined), the Potency is reported as inconclusive: 79.4 µM [inhibitor, single point].
With `CCCC(=O)NC(c1ccco1)c1cc(Cl)c2cccnc2c1O` (centres undefined) the Potency was active: 50.1 µM.
In the case of `O=C(Nc1cccc(NC(=O)c2cccc(F)c2)c1)c1ccccc1`, the Potency is reported as inconclusive: 79.4 µM [inhibitor, single point].
With `CC(C)N(C)CCOC(=O)c1ccccc1Cl` the Potency was inconclusive: 89.1 µM [inhibitor, single point].
`CCOc1ccc(C2c3[nH]c4ccccc4c3CCN2C(=O)Cc2cccc(OCC)c2OCC)cc1` (centres undefined) was tested, and the Potency was inconclusive: 8.91 µM [inhibitor, full curve].
`O=C(CCCCCN1C(=O)[C@@H]2Cc3ccccc3CN2C1=O)Nc1ccccc1Cl` was tested, and the Potency was “inactive”.
With `CCCC(C)C(=O)Nc1nc(C)c(-c2csc(Nc3cc(Cl)ccc3C)n2)s1` (centres undefined) the Potency was inconclusive: 50.1 µM [inhibitor, partial curve].
`COc1ccc(CCNc2ncnc3c2c(-c2ccccc2)cn3-c2ccc(F)cc2)cc1OC` was tested, and the Potency was inconclusive: 15.8 µM [inhibitor, full curve].
In the case of `CCN(CC(=O)Nc1c(F)cccc1F)C(=O)c1ccc(N2C(=O)c3ccccc3C2=O)cc1`, the Potency is reported as “inactive”.
`O=C(Nc1ccccc1Br)C1CC(=O)N(c2ccc3c(c2)OCCO3)C1` (centres undefined) was tested, and the Potency was “inactive”.
`Cc1cc(S(=O)(=O)NCc2ccco2)c(C)cc1Cl` was tested, and the Potency was inconclusive: 79.4 µM [inhibitor, single point].
In the case of `COc1ccccc1N1CCN(Cc2cc3c(cc2[N+](=O)[O-])OCO3)CC1`, the Potency is reported as inconclusive: 50.1 µM [inhibitor, partial curve].
`Cc1nn(C)c(Cl)c1CN1CCCC(C(=O)Nc2ccc(-c3cscn3)cc2)C1` (centres undefined) was tested, and the Potency was inconclusive: 50.1 µM [inhibitor, partial curve].
For `CCOc1cc(/C=C/c2nc3cc(C)c(C)cc3s2)ccc1OCC(=O)N1CCOCC1`, the Potency was “inactive”.
In the case of `C=CCn1c(=O)c2ccccc2n2c(SCC(=O)c3ccccc3)nnc12`, the Potency is reported as “inactive”.
In the case of `CN(C1CCCCC1)S(=O)(=O)c1ccc(=S)[nH]c1`, the Potency is reported as “inactive”.
In the case of `CCOC(=O)C(C)/C(C)=N/NC(N)=S` (centres undefined), the Potency is reported as “inactive”.
In the case of `COc1ccc(N/C=C(\C#N)S(=O)(=O)c2ccc(Cl)cc2)c(OC)c1`, the Potency is reported as “inactive”.
In the case of `COCc1cc(C)nc(OCC(=O)N/N=C/c2ccc(O)cc2O)c1C#N`, the Potency is reported as active: 39.8 µM.
`O=C(O)c1ccc(NC(=O)C2C3CCC(O3)C2C(=O)O)cc1` (centres undefined) was tested, and the Potency was inconclusive: 100 µM [inhibitor, single point].
`Cc1c(CN(C)CCc2ccccc2)c(=O)n(-c2ccccc2)n1C` was tested, and the Potency was inconclusive: 79.4 µM [inhibitor, single point].
With `O=C1N=c2ccccc2=C1c1sc(Nc2ccc(O)cc2)nc1O` the Potency was active: 56.2 µM.
With `COc1ccc(NC(=S)N2CCN(C/C=C/c3ccccc3)CC2)c(OC)c1` the Potency was inconclusive: 50.1 µM [inhibitor, partial curve].
`COc1ccc(C2C(=O)c3ccccc3C2=O)cc1` was tested, and the Potency was inconclusive: 79.4 µM [inhibitor, partial curve].
With `Cc1ccc(S(=O)(=O)N/N=C/c2cc(Br)c(C)o2)cc1` the Potency was inconclusive: 79.4 µM [inhibitor, single point].
`Cc1ccc(S(=O)(=O)Nc2nc(-c3ccccc3)cs2)cc1` was tested, and the Potency was inconclusive: 50.1 µM [inhibitor, partial curve].
For `COc1ccc(C(=O)Nc2nc3c(s2)CCc2cc(OC)ccc2-3)cc1`, the Potency was “inactive”.
In the case of `N#CCc1c(C#N)c(N)nc(N2CCN(c3ccc(F)cc3)CC2)c1C#N`, the Potency is reported as “inactive”.
`COc1ccc(-c2cc(=O)n(-c3nc4ccccc4[nH]3)[nH]2)cc1` was tested, and the Potency was active: 28.2 µM.
For `Cc1ccc(NC2=C(C(=O)c3ccccc3)N(C)S(=O)(=O)c3ccccc32)cc1`, the Potency was active: 25.1 µM.
In the case of `CN1CCN(c2ccccc2/C=N/NC(=O)c2cccnc2)CC1`, the Potency is reported as inconclusive: 89.1 µM [inhibitor, single point].
For `CCN1CCN(S(=O)(=O)c2ccc(Cl)c(C(=O)NCc3ccco3)c2)CC1`, the Potency was “inactive”.
In the case of `O=C(Nc1ccccc1Cl)OC1CCCCC1`, the Potency is reported as “inactive”.
`CN(C)c1ccc(CNC(=O)C2CCN(S(=O)(=O)c3ccc4c(ccn4C)c3)CC2)cc1` was tested, and the Potency was inconclusive: 31.6 µM [inhibitor, partial curve].
With `O=C1COc2ccc(S(=O)(=O)Nc3cccc(Cl)c3)cc2N1` the Potency was “inactive”.
With `CCC(Oc1ccccc1OC)C(=O)Nc1ccc2c(c1)n(C)c(=O)n2C` (centres undefined) the Potency was inconclusive: 89.1 µM [inhibitor, single point].
`COc1ccccc1CNC(=O)c1ccc(S(=O)(=O)N(C)c2ccccc2)cc1` was tested, and the Potency was “inactive”.
With `COC(=O)[C@@]1(Cc2ccccc2)[C@H]2c3cc(C(=O)N4CCCC4)n(Cc4ccsc4Br)c3C[C@H]2CN1C(=O)c1ccccc1` the Potency was inconclusive: 70.8 µM [inhibitor, single point].
`CCC1=C(OC(=O)N(CC)CC)N2C(=O)OC(=NCCc3c[nH]c4ccccc34)[C@]2(Cc2ccccc2)[C@H]2C1=CC[C@H]1C(=O)NC(=O)[C@H]12` was tested, and the Potency was inconclusive: 44.7 µM [inhibitor, partial curve].
`COCC(C)NC(=O)c1ccc(-n2nc(C(F)(F)F)cc2-c2cccs2)cc1` (centres undefined) was tested, and the Potency was inconclusive: 35.5 µM [inhibitor, single point].
With `CCN(CC)c1ccc(NC(=O)CSc2nc3nc(C)cc(C)c3c(=O)[nH]2)cc1` the Potency was active: 44.7 µM.
Also: nearly all actives have a fitted effect of over 60% in size.
Potency is read from the fitted curve at half-maximal effect; tags tell the direction and shape of the fitted curve.
